Test [1] deals with NIH:OVCAR-3 cells. Kind of test: WST-1 assay for monitoring drug-induced cell death. The note with it: for IC90: Homo sapiens, OVCAR-3, 72 h, read-out: IC90 (concentration to achieve 90% cell killing within 3 days).
Test [2] deals with NIH:OVCAR-3 cells. Put plainly: Confocal microscopy for activated caspases (Phi-Phi-Lux, Propidium Iodide counterstain). Type of test: cell-based. The protocol:
NIH:OVCAR-3 cells were grown in tissue chamber slides (NUNC) and treated with chemotherapeutic drugs for 4-48 h, washed and stained with Phi-Phi-Lux for 1 h. Cells were washed briefly again, fixed and counterstained with Propidium Iodide prior to analysis by confocal microscopy (Zeiss, Germany).

In brackets after ≈: the same amount, converted by molar mass.

Four compounds from US20090291075A1, “BINDING AGENTS AND THEIR USE IN TARGETING TUMOR CELLS” (ALTAREX MEDICAL CORP., priority 2002, published 2009) can be followed below.

For the compound `N.N.O=C([O-])C1(C(=O)[O-])CCC1.[Pt+2]` [carboplatin], in the test with NIH:OVCAR-3 cells [1] (NIH:OVCAR-3 cells, WST-1 assay, optimum concentration used in the examples), the “IC90 (concentration to achieve 90% cell killing within 3 days)” value is 100 µg/mL.
Turning to `COc1cccc2c1C(=O)c1c(O)c3c(c(O)c1C2=O)C[C@@](O)(C(=O)CO)C[C@@H]3O[C@H]1C[C@H](N)[C@H](O)[C@H](C)O1` [doxorubicin], in the test on NIH:OVCAR-3 cells [1], the IC90 turned out to be 100 µg/mL (≈ 184 µM).
For `CC(=O)O[C@H]1C(=O)[C@@]2(C)[C@H]([C@H](OC(=O)c3ccccc3)[C@]3(O)C[C@H](OC(=O)[C@H](O)[C@@H](NC(=O)c4ccccc4)c4ccccc4)C(C)=C1C3(C)C)[C@]1(OC(C)=O)CO[C@@H]1C[C@@H]2O` [paclitaxel], in the test on NIH:OVCAR-3 cells [1], the IC90 worked out at 1 µg/mL (≈ 1.17 µM). The “time after treatment at which paclitaxel-induced apoptosis peaked” value in the test with NIH:OVCAR-3 cells [2] (paclitaxel 1 μg/mL (IC90), caspase 3 substrate Phi-Phi-Lux) is on record as 4 h. Moreover, the cells dying entry in the test on NIH:OVCAR-3 cells [2] (paclitaxel 1 μg/mL, 48 h) is listed as “almost all cells were dying”.
With `CC[C@@]1(O)C(=O)OCc2c1cc1n(c2=O)Cc2cc3c(CN(C)C)c(O)ccc3nc2-1` [topotecan], in the test with NIH:OVCAR-3 cells [1], the IC90 was determined as 2.5 µg/mL (≈ 5.93 µM).
